Results taken from PubChem BioAssay AID1347073 (National Center for Advancing Translational Sciences (NCATS), 2019).
The whole screen tested about 45,000 compounds, of which about 200 (0.44%) were called active. Not shown: some 7% with an inconclusive outcome. Calls come from the whole dose curve; as a rule, active = well fitted activation curve with a large enough effect; inconclusive = small, poorly fitted or top-dose-only effect; inactive = no such curve, though single readings can be large or run the other way. The list shows a part of the results.

Assay: qHTS of TDP-43 Inhibitors: NCGC Sytravon Library Screen; note: nearly all actives have a fitted effect of over 55% in size; for growth rescue (activation): 0% is about no effect
Conditions: yeast TDP-43 toxicity rescue, BacTiter-Glo growth, 24 h; series mostly up to 46.1 µM; growth rescue (activation): at the top concentration
Method in brief: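 TDP-43-expressing yeast, pregrown in raffinose, seeded at OD600 0.02 in galactose medium with compound for 24 hr at 30 deg C. Growth read by BacTiter-Glo luminescence, so rescue of toxicity appears as activation.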
Potency is the fitted concentration of half-maximal effect.

Compound	growth rescue (activation)	Potency
COc1ccc(/C=C2\SC(=S)N(CCC(=O)NC3CCCC3)C2=O)cc1OC	inactive: 11.6%	
C=CCNC(=O)CN1C(=O)NC(C)(c2ccc(OC)cc2)C1=O (stereo not given)	inactive: 16.3%	
O=C1N(Cc2cccc(Cl)c2)C[C@@H]2C[C@@H](c3cccn3-c3nccs3)N3CCC[C@@]123	inactive: 10.4%	
CCOC(=O)c1oc2ccccc2c1NC(=O)CN1CCN(C)CC1	inactive: 19.8%	
S=C(Nc1ccc(Cl)cc1)c1nc2ccccc2[nH]1		active: 10 µM
N#Cc1ccccc1OCC(=O)NNC(=O)CCC1CCCC1	inactive: 11.1%	
COc1ccc(/C=N/NC(=O)c2ccoc2C)cc1OC	inactive: 3.63%	
CC(C(=O)NCC1CCCO1)c1ccc([N+](=O)[O-])cc1 (stereo not given)	inactive: 5.27%	
COc1ccc(OCC#CCN2CC(C)OC(C)C2)cc1 (stereo not given)	inactive: 1.76%	
O=C(Nc1ccc2ncccc2c1)c1ccccc1	inactive: -0.868%	
CNC(=O)CSc1nc(-c2ccccc2)c(-c2ccccc2)o1	inactive: 2.03%	
COCCNC(=O)C(c1ccc(OC)cc1)N(CCOC)C(=O)CCC(=O)Nc1nccs1 (stereo not given)	inactive: -12.3%	
CC(=O)N1C(=O)N(C(C)=O)C2C1N(C)C(=O)N2C(C)=O (stereo not given)	inactive: 7.55%	
CCn1cc(-c2ccnc3cc(C(=O)O)nn23)c(C)n1	inactive: -6.16%	
CC(C)n1nc(C(=O)Oc2cccc(Cl)c2Cl)c2ccccc2c1=O	inactive: 11.8%	
CCCOc1ccc(N2C(=O)CC(N3CCN(CCN=CC4C(=O)CC(C)(C)CC4=O)CC3)C2=O)cc1 (stereo not given)	inactive: 39.4%	
CCNC(=S)N(Cc1ccco1)Cc1cc2cc3c(cc2[nH]c1=O)OCCO3	inactive: 24.6%	
O=C(CSc1ccc2ccccc2c1)Nc1ncccn1	inactive: 18.6%	
C/C(=N\NC(=O)c1ccco1)c1cccc2ccccc12	inactive: 20.5%	
O=C(NC1CCCc2c1cnn2-c1ccc(F)cc1F)c1ccccn1 (stereo not given)	inactive: 22.1%	
COc1ccccc1CNC(=O)CN1CCN(c2ccc(C(C)=O)cc2)CC1	inactive: -17.1%	
NNC(=O)/C(=C\c1cccs1)NC(=O)c1ccccc1	inactive: 18.8%	
O=C(Nc1ccc(Cl)c(S(=O)(=O)N2CCOCC2)c1)c1ccc(OCC2CCCO2)cc1 (stereo not given)	inactive: 13.2%	
COc1ccc(NS(=O)(=O)c2ccc(C)c(NC(=O)C3CCCO3)c2)cc1 (stereo not given)	inactive: 17%	
COc1ccc(C(CNC(=O)c2cccc(S(=O)(=O)N3CCc4ccccc43)c2)N(C)C)cc1 (stereo not given)	inactive: -6.42%	
Nc1c(Br)c(=O)[nH]c(=O)n1-c1ccc(F)cc1	inactive: 5.88%	
COc1cc(OC)cc(C(=O)OCc2ccc([N+](=O)[O-])cc2)c1	inactive: -5.25%	
Cc1ccc(NC(=O)c2cccc3cccnc23)cc1	inactive: 9.76%	
COc1cc(C(=O)CSc2nncn2C)cc(OC)c1OC	inactive: 13.5%	
CC(CCc1ccccc1)NC(=O)COC(=O)c1cc(NS(=O)(=O)c2ccc(Cl)c([N+](=O)[O-])c2)ccc1O (stereo not given)	inactive: 14.9%	
